61 compounds from PubChem BioAssay AID1508623 (National Center for Advancing Translational Sciences (NCATS), 2021) can be followed below.

The campaign covered roughly 48,000 compounds. About 450 (0.94%) were called active. Another 19% or so got no clear call; they are omitted. Calls follow the shape of the dose curve; as a rule, active = well fitted inhibition curve with a large enough effect; inconclusive = small, poorly fitted or top-dose-only effect; inactive = no such curve, though single readings can be large or run the other way. The list shows a part of the results.

This experiment is described as follows: Primary qHTS for Identification of Small Molecule Inhibitors of Huntingtin Promoter Activity. Also: nearly all actives have a fitted effect of over 50% in size. To be noted: HEK293 HTT promoter firefly luciferase reporter (activity 0% = vehicle and -100% = no light), 24 h; series mostly up to 57.5 µM; activity change, negative = inhibition: at the top concentration. An outline of the steps:
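Firefly luciferase signal from promoter-reporter HEK293 cells was scaled between vehicle (0%) and zero RLU (-100%). Compounds were tested at final concentrations of up to 57.5 uM over 24 h at 37 degrees C. PTC124 at 50 uM final served as control inhibitor.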
(In general: Quantitative high-throughput screening tests each substance at several concentrations.)
`COc1ccc(NC(=O)Cn2nnc(C(=O)NCCc3ccccc3)c2N)cc1`: the “activity change, negative = inhibition” value was inactive: -18.8%. To `CC(=O)c1cccc(NC(=O)C(C)n2c(=O)cc(C)c3c(C)nn(-c4ccccc4)c32)c1` (stereo unspecified) belongs inactive: -9.57%; to `COc1ccc(CCNC(=O)c2ccc(Nc3nc4ccccc4n4nnnc34)cc2)cc1OC`, inactive: -15%; to `O=C(NCCc1ccccc1)c1ccc2c(c1)N(Cc1ccc(F)cc1)C(=O)c1ccccc1S2(=O)=O`, inactive: -15%. For `CC(C)c1ccc(NC(=O)c2cc3sc(Cl)cc3n2C)cc1` the value was inactive: 10.4%; for `Cc1cc(C)cc(NC(=O)N2CCC3(CC2)Oc2ccccc2C(=O)N3Cc2ccccc2F)c1`, inactive: -25.8%.

For the compound `CC1CCc2c(sc3nc(-c4cc5cc(Br)ccc5oc4=O)[nH]c(=O)c23)C1` (stereo unspecified), the “activity change, negative = inhibition” value is inactive: -6.01%. On to `O=C(CCS(=O)(=O)c1cccc2nonc12)Nc1c(F)cccc1F`, for which the “activity change, negative = inhibition” value was inactive: -11.7%. For `CCOc1ccc(NC(=O)c2c(NCc3cccnc3)sc3c2CCCC3)cc1` the value was inactive: 40.7%; for `CCOC(=O)c1ccc(CN(Cc2ccc(F)cc2)S(=O)(=O)c2ccc(F)c(C(=O)Nc3ccc(Cl)cc3F)c2)cc1`, inactive: -31.3%; for `O=S(=O)(Nc1ccc(Br)cc1F)c1ccc2nc(-c3ccccc3)[nH]c2c1`, inactive: -7.37%. For `COc1ccc(CCn2c(=O)c3cccnc3n(CC(=O)Nc3ccc(C)c(F)c3)c2=O)cc1OC` the value was inactive: 9.67%; for `COc1ccc(-c2nnc(SCC(=O)Nc3cccc(C(F)(F)F)c3)nc2-c2ccc(OC)cc2)cc1`, inactive: -1.19%. For `CCOc1ccc(OCC)c(NC(=O)C2CCN(S(=O)(=O)c3c(C)noc3/C=C/c3ccccc3F)CC2)c1` the value was inactive: -7.74%; for `COc1cccc(Cn2c(CNS(=O)(=O)c3ccc(F)c(Cl)c3)nc3cccnc32)c1`, inactive: -23%. Turning to `CC(C)COc1ccc(C(=O)Nc2cc3nn(-c4ccccc4)nc3cc2Cl)cc1`, the “activity change, negative = inhibition” value was inactive: -3.89%. As to `CCc1nn2c(=O)cc(COc3ccc(/C=C(\C#N)C(=O)Nc4ccc(F)cc4)cc3OC)nc2s1`, the “activity change, negative = inhibition” value was inactive: 2.3%. To `O=S(=O)(NCC(c1cccs1)S(=O)(=O)c1ccccc1)c1ccc(F)cc1` (stereo unspecified) belongs inactive: -20.8%; to `CCOc1ccccc1CNC(=O)c1cc(-c2ccc(Cl)s2)nc2ccccc12`, inactive: -30.9%; to `Cc1ccccc1-c1nn2c(=O)cc(CN3CCN(C(=O)/C=C/c4ccccc4)CC3)nc2s1`, inactive: -4.69%. As for `CCc1ccc(NC(=O)Cn2c(=O)n(CCC(=O)N3CCc4ccccc4C3)c(=O)c3ccccc32)cc1`, the “activity change, negative = inhibition” value was inactive: -12.8%. Take `CCc1ccc2oc(C(=O)Nc3nc(-c4ccc(F)cc4)ns3)c(C)c2c1`: the “activity change, negative = inhibition” value was inactive: 2.04%. For `Cc1cc2c(n1-c1ccc(C(=O)NCCc3ccc(Cl)cc3)cc1)CCC(C)C2` (stereo unspecified), the “activity change, negative = inhibition” value was inactive: 0.489%. To `COc1ccc(-c2cc(C(F)(F)F)n3nc(C(=O)OC(C)C)cc3n2)cc1` belongs inactive: -15.6%; to `Cc1c(C2=CCN(S(=O)(=O)c3ccc(Cl)cc3)CC2)c2ccccc2n1CC(=O)N1CCCC1`, inactive: -29.5%; to `CCC1CCCCN1C(=O)CSc1n[nH]c(-c2ccccc2)n1` (stereo unspecified), inactive: 10.8%. On to `COc1ccc(N(Cc2nnc3n2CCCCC3)C(=O)Nc2ccc(Cl)cc2)cc1Cl`, for which the “activity change, negative = inhibition” value is inactive: -10.4%.

As to `CNC(=O)c1ccc(-c2nc(CN3CCc4ccccc43)c(C)o2)cc1`, the “activity change, negative = inhibition” value is inactive: -22.8%. Regarding `CC(=O)Nc1ccc(Nc2nc3ccc(Cl)cc3n3cnnc23)cc1`, the “activity change, negative = inhibition” value is inactive: -15.4%. For the compound `Cc1cccc(OCC(=O)Nc2ccc(OCc3cc(=O)n4cc(C)ccc4n3)cc2)c1`, the “activity change, negative = inhibition” value is inactive: 0.59%. Consider `Cc1c(Cl)cccc1NC(=O)C(C)n1nc(C)c2c(C)n(-c3ccccc3)nc2c1=O` (stereo unspecified), for which the “activity change, negative = inhibition” value was inactive: -26.3%. For `O=C1CC(c2nnc(Cc3ccc(F)cc3)o2)CN1c1ccccc1` (stereo unspecified), the “activity change, negative = inhibition” value was inactive: -10.8%. As to `Cc1cccc(NC(=O)CSc2cn(CC(=O)N3CCC(C)CC3)c3ccccc23)c1C`, the “activity change, negative = inhibition” value was inactive: -5.26%. To `Fc1ccccc1-n1ncc2c1ncn1nc(COc3ccc(Cl)cc3)nc21` belongs inactive: -8.67%.

As to `COc1ccccc1CNC(=O)c1cc(S(=O)(=O)N2CCCCCC2)cn1C`, the “activity change, negative = inhibition” value is inactive: -17.8%.

Regarding `Cc1cccc(N2CCN(S(=O)(=O)c3nnc(NC(=O)c4ccc(Cl)cc4)s3)CC2)c1`, the “activity change, negative = inhibition” value is inactive: -10.7%. Consider `COc1ccc(OC)c(NC(=O)c2ccc3nc(C(C)C)oc3c2)c1`, for which the “activity change, negative = inhibition” value is inactive: -11%.

For the compound `COc1ccccc1N1CCN(C(=O)c2cc3c(s2)-c2ccccc2OC3)CC1`, the “activity change, negative = inhibition” value is inactive: -32.9%.

Consider `CCc1cccc(NC(=O)c2cc(S(=O)(=O)N3CCCCCC3)cn2C)c1`, for which the “activity change, negative = inhibition” value is inactive: -22.4%.

Take `Cc1ccccc1CN1CCC(CNC(=O)c2cc3ccc4cccnc4c3[nH]2)CC1`: the “activity change, negative = inhibition” value was inactive: -12.3%.

Consider `CC(C)(C)C(=O)NC1CC(=O)N(c2ccc3c(c2)OCCO3)C1` (stereo unspecified), for which the “activity change, negative = inhibition” value is inactive: -1.5%.

In the case of `CCc1ccccc1N1CC(c2nc3ccccc3n2CCCCOc2ccccc2OC)CC1=O` (stereo unspecified), the “activity change, negative = inhibition” value is inactive: -6.06%. On to `Cc1noc(Cn2c(=O)c3cc4c(cc3n(CC(=O)Nc3ccc(C(C)C)cc3)c2=O)OCO4)n1`, for which the “activity change, negative = inhibition” value was inactive: -24%. In the case of `CC(C)NC(=O)Cc1csc2nc(-c3ccccc3)cn12`, the “activity change, negative = inhibition” value is inactive: -18.8%.

Regarding `CNS(=O)(=O)c1ccc(NC(=O)c2nc3nc(C)cc(C(F)F)n3n2)cc1`, the “activity change, negative = inhibition” value was inactive: -8.69%. For `CCN(c1ccccc1)S(=O)(=O)c1ccc(NC(=O)c2cc(=O)c3c(C)cc(C)cc3o2)cc1` the value was inactive: 0%; for `O=C1CCc2cc(S(=O)(=O)NC(C(=O)Nc3ccc(F)cc3)c3ccccc3)ccc2N1` (stereo unspecified), inactive: -12.5%; for `Cc1nc2nc(CNC(=O)c3cccc(F)c3)nn2c(C)c1CCC(=O)Nc1ccc(F)cc1`, inactive: 10.6%. For `CCOc1ccc(NS(=O)(=O)c2ccc3[nH]cc(C(=O)N4CCCC4)c(=O)c3c2)cc1` the value was inactive: 10.1%; for `O=c1ccc2ccccc2o1`, inactive: -5.5%; for `O=c1n(Cc2ccccc2)nc2n1-c1ccccc1OC2`, inactive: 25.4%. Turning to `CC(C)c1cnc2c(c1SCc1ccc([N+](=O)[O-])cc1)c(=O)n(C)c(=O)n2C`, the “activity change, negative = inhibition” value is inactive: -0.578%.

As to `COc1cc2c(cc1OC)C(COc1ccc(F)cc1)N(C(=O)C(C)C)CC2` (stereo unspecified), the “activity change, negative = inhibition” value was inactive: -24.1%. For `C=C1C(=O)OC2C=C(C)CCC=C(C)CCC12` (stereo unspecified) the value was inactive: -1.64%; for `COc1ccc(S(=O)(=O)N(Cc2nc(-c3ccccc3)no2)C2CCCCC2)cc1`, inactive: -26.9%; for `Cc1ccccc1C(=O)NCC(c1ccc(N(C)C)cc1)N1CCCC1` (stereo unspecified), inactive: 35.3%. With `Cc1cccc(-c2noc(-c3cccnc3NCc3ccccc3Cl)n2)c1`, the “activity change, negative = inhibition” value is inactive: 1.75%. Turning to `O=S(=O)(NCC(c1ccco1)S(=O)(=O)c1ccccc1)c1cc(F)ccc1F` (stereo unspecified), the “activity change, negative = inhibition” value is inactive: -12.6%. In the case of `CNC(=O)C1CCC(Cn2c(=O)c3sccc3n(CC(=O)N3CCCCC3C)c2=O)CC1` (stereo unspecified), the “activity change, negative = inhibition” value is inactive: -7.23%.

For `COc1cc(C2CC(=O)N(c3ccc(C)c(Cl)c3)C3=C2C(=O)OC3)cc(OC)c1OC` (stereo unspecified), the “activity change, negative = inhibition” value is inactive: -8.02%. In the case of `O=C(CCS(=O)(=O)c1ccc(Br)s1)Nc1c(F)cccc1F`, the “activity change, negative = inhibition” value is inactive: -9.97%.
